Laboratory results from PubChem BioAssay AID686979 (National Center for Advancing Translational Sciences (NCATS), 2013).
The whole screen tested about 420,000 compounds, of which about 50,000 (12%) were called active. Inconclusive results, whose numbers are uncertain, are shown with a selection of clear calls. Calls come from the whole dose curve; as a rule, active = well fitted inhibition curve with a large enough effect; inconclusive = small, poorly fitted or top-dose-only effect; inactive = flat fitted curve, though single readings scatter. No potency is given beside an inconclusive call; the fits are too rough.

Experiment: qHTS for Inhibitors of human tyrosyl-DNA phosphodiesterase 1 (TDP1): qHTS in cells in presence of CPT; note: nearly all actives have a fitted effect of over 55% in size
Conditions: chicken DT40 Tdp1-/-;hTDP1 cells + 20 nM CPT, ATP luminescence, 48 h; activity change, negative = growth inhibition: at 46.2 µM (top of the series) unless noted
Method in brief: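 Cell growth measured by CellTiter-Glo luminescence after a minimum 48 h, 37 C compound exposure with 20 nM CPT in Tdp1-knockout DT40 cells stably expressing hTDP1, seeded 400/well; qHTS titration format.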
% is set by controls: 0 for no effect and ±100 for the full control effect; potency is the fitted concentration of half-maximal effect; tags give direction and shape of the fitted curve.

**Q.** With `COc1ccc(NC(=O)CCOc2ccccc2F)cc1S(=O)(=O)N1CCCCC1` as the molecule, how does the Potency read?
**A.** inconclusive [inhibitor, single point]

**Q.** With `Cc1ccc(NS(=O)(=O)c2ccc(C(=O)NCC(c3ccco3)N3CCCCC3)cc2)cc1` (configuration not stated) as the molecule, how does the Potency read?
**A.** inconclusive [inhibitor, single point]

**Q.** For `Cn1c(SCC(=O)NNC(=O)Cc2ccccc2)nnc1-c1ccc(Cl)cc1`, which “activity change, negative = growth inhibition” value is on record?
**A.** inactive: -11.4%

**Q.** For `CCCCNS(=O)(=O)c1ccc(NS(=O)(=O)c2c(C)cc(C)cc2C)cc1`, which Potency is on record?
**A.** inconclusive [inhibitor, single point]

**Q.** For `O=C(CCN1C(=O)S/C(=C\c2ccccc2)C1=O)N1CCCCC1`, which Potency is on record?
**A.** inconclusive [inhibitor, single point]

**Q.** With `C=CC(C1=CC(=O)C(OC)=CC1=O)c1ccccc1` (configuration not stated) as the molecule, how does the Potency read?
**A.** active: 3.66 µM

**Q.** Which Potency does the source give for `CCCC(=O)Nc1ccc(C(=O)NNC(=O)c2cccs2)cc1` here?
**A.** inconclusive [inhibitor, single point]

**Q.** With `CCOC(=O)C1(C)CCN1C(=O)c1oc2ccccc2c1C` (configuration not stated) as the molecule, how does the Potency read?
**A.** inconclusive [inhibitor, single point]

**Q.** Which Potency does the source give for `O=C(CSc1nc2cccnc2n1Cc1ccccc1)NC1CCCCC1` here?
**A.** inconclusive [inhibitor, single point]

**Q.** For `COc1cccc(-n2c(=O)c3sccc3n(Cc3cc(=O)n4cc(Cl)ccc4n3)c2=O)c1`, which “activity change, negative = growth inhibition” value is on record?
**A.** inactive: -7.46%

**Q.** Which Potency does the source give for `CCN(C(=O)CN1C(=O)NC(c2ccccc2)(c2ccc(C)c(C)c2)C1=O)C1CCCCC1` (configuration not stated) here?
**A.** active: 16.4 µM

**Q.** For `CCC(=O)N1CCc2cc(S(=O)(=O)NCCC(=O)NCc3ccc(OC)cc3)ccc21`, which Potency is on record?
**A.** inconclusive [inhibitor, single point]

**Q.** For `CC(=O)Nc1sc(C)c(C)c1CN1CCN(S(=O)(=O)c2ccccc2)CC1`, which Potency is on record?
**A.** inconclusive [inhibitor, partial curve]

**Q.** For `Cc1ccc2c(Cl)c(C)c(N3CCCC3)nc2n1`, which Potency is on record?
**A.** inconclusive [inhibitor, single point]

**Q.** Which “activity change, negative = growth inhibition” value does the source give for `C/C(=N\NC(=O)Cn1ccc(C(F)(F)F)n1)c1ccco1` here?
**A.** inactive: 3.23%

**Q.** Which Potency does the source give for `CC(C)CN1Cc2ccccc2Oc2cc(Br)ccc2S1(=O)=O` here?
**A.** inconclusive [inhibitor, single point]

**Q.** For `Cc1ccccc1-c1nc(S(=O)(=O)c2ccc(Cl)cc2)c(NCCN2CCOCC2)o1`, which Potency is on record?
**A.** inconclusive [inhibitor, single point]

**Q.** Which Potency does the source give for `CCCn1c(N2CCN(Cc3ccc(Cl)cc3)CC2)nc2ccccc21` here?
**A.** inconclusive [inhibitor, single point]

**Q.** With `CCOC(=O)CNC(=S)N(Cc1ccccc1F)C1CCCCC1` as the molecule, how does the “activity change, negative = growth inhibition” value read?
**A.** inactive: -10.8%

**Q.** For `C/C(=N\NC(=O)c1ccccc1F)c1ccccn1`, which Potency is on record?
**A.** active: 3.26 µM

**Q.** Which Potency does the source give for `COc1cccc(-c2nc(Nc3ccncc3)c3ccccc3n2)c1` here?
**A.** active: 8.2 µM

**Q.** Which Potency does the source give for `CCOC(=O)C(C)Sc1nc2c(cnn2-c2ccc(C)cc2)c(=O)[nH]1` (configuration not stated) here?
**A.** inconclusive [inhibitor, single point]

**Q.** For `CS(=O)(=O)c1nc(S(=O)(=O)c2ccc(Cl)cc2)c(N2CCCCC2)s1`, which Potency is on record?
**A.** inconclusive [inhibitor, single point]

**Q.** Which Potency does the source give for `CCCCCN1CC(=O)N2[C@@H](Cc3c([nH]c4ccccc34)C2(C)C)C1=O` here?
**A.** inconclusive [inhibitor, single point]

**Q.** Which Potency does the source give for `CN1CCN(c2nc(-c3ccc(Cl)cc3)nc3ccccc23)CC1` here?
**A.** inconclusive [inhibitor, single point]

**Q.** With `Cc1ccc(C(O)c2ncc(-c3ccccc3C)[nH]2)cc1` (configuration not stated) as the molecule, how does the “activity change, negative = growth inhibition” value read?
**A.** inactive: -26.9%

**Q.** For `CCc1cccc(NC(=O)c2sc3nc4n(c(=O)c3c2C)CCC4)c1`, which Potency is on record?
**A.** inconclusive [inhibitor, single point]

**Q.** For `COc1ccc(-c2csc(NC(C)c3nc4cc(Cl)c(Cl)cc4n3CCCO)n2)cc1` (configuration not stated), which Potency is on record?
**A.** inconclusive [inhibitor, single point]

**Q.** Which Potency does the source give for `COC(=O)C(NC(=O)c1ccccc1Cl)(Nc1ncc(S(=O)(=O)c2ccc([N+](=O)[O-])cc2)s1)C(F)(F)F` (configuration not stated) here?
**A.** inconclusive [inhibitor, single point]

**Q.** With `CCc1ccc(C(O)(c2ccccc2OC)C(CN2CCOCC2)c2ccccc2)cc1` (configuration not stated) as the molecule, how does the Potency read?
**A.** inconclusive [inhibitor, single point]

**Q.** Which “activity change, negative = growth inhibition” value does the source give for `Cc1ccc(-c2nc(CCNC(=O)C(=O)Nc3ccc(F)cc3F)cs2)cc1` here?
**A.** inactive: -25.4%

**Q.** With `Cc1ccc(C(=O)CCC(=O)N2CCN(c3ccc(F)cc3)CC2)cc1` as the molecule, how does the Potency read?
**A.** inconclusive [inhibitor, single point]

**Q.** With `O=C(CN1CCN(S(=O)(=O)c2cccc(F)c2)CC1)Nc1ccnn1C1CCCC1` as the molecule, how does the “activity change, negative = growth inhibition” value read?
**A.** inactive: -26%

**Q.** Which Potency does the source give for `COc1ccc(C(C(=O)NCc2ccccc2)N(C(=O)c2snc(C(N)=O)c2N)c2ccccc2OC)cc1` (configuration not stated) here?
**A.** inconclusive [inhibitor, full curve, poor fit]

**Q.** For `O=[N+]([O-])c1ccc(Sc2nccn2Cc2ccccc2)cc1`, which Potency is on record?
**A.** inconclusive [inhibitor, single point]

**Q.** Which Potency does the source give for `CN(C)/C(CN1CCN(C=O)CC1)=C1\N=C(c2ccccc2)OC1=O` here?
**A.** inconclusive [inhibitor, single point]

**Q.** Which Potency does the source give for `CCOC(=O)c1ccc(NC(=O)C(=O)NCC2(c3ccc(OC)cc3)CCOCC2)cc1` here?
**A.** inconclusive [inhibitor, single point]

**Q.** With `Clc1ccc(Cn2nnc(-c3ccc(N4CCOCC4)cc3)n2)cc1` as the molecule, how does the Potency read?
**A.** inconclusive [inhibitor, single point]

**Q.** Which Potency does the source give for `O=C1NC(Cc2ccc(O)cc2)c2nc3cc(Cl)ccc3c(=O)n2-c2ncccc21` (configuration not stated) here?
**A.** inconclusive [inhibitor, single point]

**Q.** With `COc1ccc(-n2nnnc2C(CCc2ccccc2)N2CCN(C/C=C/c3ccccc3)CC2)cc1` (configuration not stated) as the molecule, how does the Potency read?
**A.** inconclusive [inhibitor, single point]

**Q.** For `O=S(=O)(c1ccc(N2CCN(c3ccc(F)cc3)CC2)cc1)N1CCCC1`, which “activity change, negative = growth inhibition” value is on record?
**A.** inactive: -1.83%

**Q.** For `COc1ccc(O)c(CN2CCCC(C(=O)Nc3cccc(-n4cccn4)c3)C2)c1` (configuration not stated), which Potency is on record?
**A.** inconclusive [inhibitor, single point]

**Q.** With `N#Cc1ccc2ccn(CC(=O)N3CCCc4ccccc43)c2c1` as the molecule, how does the Potency read?
**A.** inconclusive [inhibitor, single point]

**Q.** With `O=C1NC(=Nc2ccccc2)S/C1=C/c1cccnc1` as the molecule, how does the “activity change, negative = growth inhibition” value read?
**A.** inactive: 19.3%

**Q.** With `COc1ccc(C(=O)Nc2nc(C)cc(C)n2)cc1` as the molecule, how does the “activity change, negative = growth inhibition” value read?
**A.** inactive: -2.01%

**Q.** With `Cc1cc(C)n(CC(O)COc2ccc(Cl)cc2)n1` (configuration not stated) as the molecule, how does the “activity change, negative = growth inhibition” value read?
**A.** inactive: 4.37%

**Q.** Which activity change, negative = growth inhibition does the source give for `CC(=O)OC1CC(C)(C)N(OC(=O)c2ccc(N)cc2)C(C)(C)C1` here?
**A.** inconclusive: -32.2% [inhibitor]

**Q.** For `CCN=C1SC(C(=O)Nc2cccc(Br)c2)CC(=O)N1CC` (configuration not stated), which Potency is on record?
**A.** inconclusive [inhibitor, single point]

**Q.** For `CC1CCCCN1C(=O)CSc1nnc(-c2ccccc2O)o1` (configuration not stated), which Potency is on record?
**A.** inconclusive [inhibitor, single point]

**Q.** With `COc1ccccc1NCc1nnc2n1CCCCC2` as the molecule, how does the “activity change, negative = growth inhibition” value read?
**A.** inactive: -0.777%

**Q.** Which Potency does the source give for `O=C(c1ccccc1)C(Nc1cccc([N+](=O)[O-])c1)c1ccccc1` (configuration not stated) here?
**A.** inconclusive [inhibitor, single point]

**Q.** For `COCCN1CCN(C(=O)C2CCC(=O)N(CCc3ccc(Cl)cc3)C2)CC1` (configuration not stated), which Potency is on record?
**A.** inconclusive [inhibitor, single point]

**Q.** With `O=C1C(Cc2ccccc2)Nc2ncnc(N3CCOCC3)c2N1Cc1ccc(Cl)cc1` (configuration not stated) as the molecule, how does the Potency read?
**A.** inconclusive [inhibitor, single point]

**Q.** For `COc1ccccc1CNC(=O)CCCN1C(=O)CCn2nc(-c3cn(C)c4ccccc34)cc21`, which Potency is on record?
**A.** inconclusive [inhibitor, single point]

**Q.** Which “activity change, negative = growth inhibition” value does the source give for `CC(=O)Nc1ccc(NC(=O)CSc2nnc(C)c(=O)[nH]2)cc1` here?
**A.** inactive: 2.71%

**Q.** Which Potency does the source give for `CCOC(=O)C1CCCN(S(=O)(=O)c2cc3c4c(c2)CCN4C(=O)CC3)C1` (configuration not stated) here?
**A.** inconclusive [inhibitor, single point]

**Q.** For `Cc1ccc(-c2nc3sc(CCNC(=O)c4ccco4)c(C)n3n2)cc1`, which Potency is on record?
**A.** inconclusive [inhibitor, single point]

**Q.** For `Cc1onc(C(=O)Nc2cccc(C(F)(F)F)c2)c1[N+](=O)[O-]`, which Potency is on record?
**A.** inconclusive [inhibitor, single point]

**Q.** With `Cc1c(C(=O)Nc2cccc(N(C)S(C)(=O)=O)c2)cccc1[N+](=O)[O-]` as the molecule, how does the “activity change, negative = growth inhibition” value read?
**A.** inactive: -22.7%

**Q.** With `O=C(C1=NNCC1c1ccccc1)C1CO1` (configuration not stated) as the molecule, how does the Potency read?
**A.** inconclusive [inhibitor, partial curve]

**Q.** With `COC(=O)c1cc(=O)c(O)c2c(O)c(O)ccc2c1` as the molecule, how does the Potency read?
**A.** inconclusive [inhibitor, single point]

**Q.** For `CCN1C(=O)[C@H]2[C@@H](c3ccc(C(F)(F)F)cc3)N[C@]3(CCCN(CC4CCCCC4)C3=O)[C@H]2C1=O`, which Potency is on record?
**A.** inconclusive [inhibitor, single point]

**Q.** With `Cc1cc(NS(=O)(=O)c2ccc(NC(=S)NC(=O)c3ccccc3)cc2)no1` as the molecule, how does the Potency read?
**A.** inconclusive [inhibitor, single point]

**Q.** For `Fc1ccc(C(c2nnc(-c3ccccc3)o2)N2CCN(c3ccccc3)CC2)c(Cl)c1` (configuration not stated), which Potency is on record?
**A.** inconclusive [inhibitor, single point]

**Q.** For `CC(C)C(=O)Nc1c(C(=O)N2CCN(c3ccccc3F)CC2)oc2ccccc12`, which Potency is on record?
**A.** active: 10.3 µM

**Q.** Which Potency does the source give for `COc1cccc(-c2nc(OC(C)C)c3ccccc3n2)c1` here?
**A.** inconclusive [inhibitor, partial curve]

**Q.** Which Potency does the source give for `COc1ccc(NC(=O)C2CCN(S(=O)(=O)c3cccc4cccnc34)CC2)cc1` here?
**A.** inconclusive [inhibitor, single point]
